tested on: MLKL phosphorylation, HT29-L23 human colorectal adenocarcinoma cells; assay: cells; conditions: read-out: pMLKL HCS Cell Assay (IC50, uM)

**Q.** `COc1ncc(-c2cc(C(F)(F)F)c3c(N)ncnn23)cc1C(=O)N[C@@H]1CN(S(=O)(=O)Cc2cccc([N+](=O)[O-])c2)C[C@@H]1F` [Example 1495, 5-[4-amino-5-(trifluoromethyl)pyrrolo[2,1-f][1,2,4]triazin-7-yl]-N-[(3R,4S)-4-fluoro-1-[(3-nitrophenyl)methanesulfonyl]pyrrolidin-3-yl]-2-methoxypyridine-3-carboxamide] was tested. Which IC50 did it give?
**A.** 0.238 µM

**Q.** For `COc1ncc(-c2cc(C(F)(F)F)c3c(N)ncnn23)cc1C(=O)N[C@@H]1CN(S(=O)(=O)Cc2ccccc2C(F)(F)F)C[C@@H]1F` [Example 1496, 5-[4-amino-5-(trifluoromethyl)pyrrolo[2,1-f][1,2,4]triazin-7-yl]-N-[(3R,4S)-4-fluoro-1-{[2-(trifluoromethyl)phenyl]methanesulfonyl}pyrrolidin-3-yl]-2-methoxypyridine-3-carboxamide], which IC50 is on record?
**A.** 0.085 µM

**Q.** For `COc1ncc(-c2cc(C(F)(F)F)c3c(N)ncnn23)cc1C(=O)N[C@@H]1CN(S(=O)(=O)Cc2ccccc2F)C[C@@H]1F` [Example 1497, 5-[4-amino-5-(trifluoromethyl)pyrrolo[2,1-f][1,2,4]triazin-7-yl]-N-[(3R,4S)-4-fluoro-1-[(2-fluorophenyl)methanesulfonyl]pyrrolidin-3-yl]-2-methoxypyridine-3-carboxamide], which IC50 is on record?
**A.** 0.0094 µM

**Q.** For `COc1ncc(-c2cc(C(F)(F)F)c3c(N)ncnn23)cc1C(=O)N[C@@H]1CN(S(=O)(=O)C(c2ccccc2)C(F)(F)F)C[C@@H]1F` (stereo partly drawn) [Example 1498, 5-[4-amino-5-(trifluoromethyl)pyrrolo[2,1-f][1,2,4]triazin-7-yl]-N-[(3R,4S)-4-fluoro-1-(2,2,2-trifluoro-1-phenylethanesulfonyl)pyrrolidin-3-yl]-2-methoxypyridine-3-carboxamide], which IC50 is on record?
**A.** 0.223 µM

**Q.** Which IC50 does the source give for `COc1ncc(-c2cc(CN3CCC(F)(F)CC3)c3c(N)ncnn23)cc1C(=O)N[C@@H]1CN(C(=O)OCC(F)F)C[C@@H]1F` [Example 1499, 2,2-difluoroethyl (3R,4S)-3-(5-{4-amino-5-[(4,4-difluoropiperidin-1-yl)methyl]pyrrolo[2,1-f][1,2,4]triazin-7-yl}-2-methoxypyridine-3-amido)-4-fluoropyrrolidine-1-carboxylate] here?
**A.** 0.00077 µM

**Q.** How did the IC50 turn out when `CCOC(=O)N1C[C@H](F)[C@H](NC(=O)c2cc(-c3cc(CN4CCC(F)(F)CC4)c4c(N)ncnn34)cnc2OC)C1` [Example 1500, ethyl (3R,4S)-3-(5-{4-amino-5-[(4,4-difluoropiperidin-1-yl)methyl]pyrrolo[2,1-f][1,2,4]triazin-7-yl}-2-methoxypyridine-3-amido)-4-fluoropyrrolidine-1-carboxylate] was run?
**A.** 0.0014 µM

**Q.** For `COc1ncc(-c2cc(CN3CCC(F)(F)CC3)c3c(N)ncnn23)cc1C(=O)N[C@@H]1CN(C(=O)OCCC(F)(F)F)C[C@@H]1F` [Example 1503, 3,3,3-trifluoropropyl (3R,4S)-3-(5-{4-amino-5-[(4,4-difluoropiperidin-1-yl)methyl]pyrrolo[2,1-f][1,2,4]triazin-7-yl}-2-methoxypyridine-3-amido)-4-fluoropyrrolidine-1-carboxylate], which IC50 is on record?
**A.** 0.0029 µM

**Q.** Which IC50 does the source give for `COc1ncc(-c2cc(CN3CCC(F)(F)CC3)c3c(N)ncnn23)cc1C(=O)NC1CN(C(=O)OC(C)C(F)(F)F)C[C@@H]1F` (stereo partly drawn) [Example 1504, 1,1,1-trifluoropropan-2-yl (3R,4S)-3-(5-{4-amino-5-[(4,4-difluoropiperidin-1-yl)methyl]pyrrolo[2,1-f][1,2,4]triazin-7-yl}-2-methoxypyridine-3-amido)-4-fluoropyrrolidine-1-carboxylate] here?
**A.** 0.01 µM

**Q.** For `COc1ncc(-c2cc(CN3CCC(F)(F)CC3)c3c(N)ncnn23)cc1C(=O)N[C@@H]1CN(C(=O)OC(C)CC(F)(F)F)C[C@@H]1F` (stereo partly drawn) [Example 1505, 4,4,4-trifluorobutan-2-yl (3R,4S)-3-(5-{4-amino-5-[(4,4-difluoropiperidin-1-yl)methyl]pyrrolo[2,1-f][1,2,4]triazin-7-yl}-2-methoxypyridine-3-amido)-4-fluoropyrrolidine-1-carboxylate], which IC50 is on record?
**A.** 0.0024 µM

**Q.** How did the IC50 turn out when `COc1ncc(-c2cc(CN3CCC(F)(F)CC3)c3c(N)ncnn23)cc1C(=O)N[C@@H]1CN(C(=O)OC(C)C(F)(F)F)C[C@@H]1F` (stereo partly drawn) [Example 1507, 1,1,1-trifluoropropan-2-yl (3R,4S)-3-(5-{4-amino-5-[(4,4-difluoropiperidin-1-yl)methyl]pyrrolo[2,1-f][1,2,4]triazin-7-yl}-2-methoxypyridine-3-amido)-4-fluoropyrrolidine-1-carboxylate] was run?
**A.** 0.00037 µM

**Q.** Which IC50 does the source give for `COc1ncc(-c2cc(CN3CCC(F)(F)CC3)c3c(N)ncnn23)cc1C(=O)N[C@@H]1CN(C(=O)OCC(C)(C)C(F)(F)F)C[C@@H]1F` [Example 1508, 3,3,3-trifluoro-2,2-dimethylpropyl (3R,4S)-3-(5-{4-amino-5-[(4,4-difluoropiperidin-1-yl)methyl]pyrrolo[2,1-f][1,2,4]triazin-7-yl}-2-methoxypyridine-3-amido)-4-fluoropyrrolidine-1-carboxylate] here?
**A.** 0.008 µM

**Q.** Which IC50 does the source give for `COc1ncc(-c2cc(CN3CCC(F)(F)CC3)c3c(N)ncnn23)cc1C(=O)N[C@@H]1CN(C(=O)OC2CCC2)C[C@@H]1F` [Example 1509, cyclobutyl (3R,4S)-3-(5-{4-amino-5-[(4,4-difluoropiperidin-1-yl)methyl]pyrrolo[2,1-f][1,2,4]triazin-7-yl}-2-methoxypyridine-3-amido)-4-fluoropyrrolidine-1-carboxylate] here?
**A.** 0.0021 µM

**Q.** With `COc1ncc(-c2cc(CN3CCC(F)(F)CC3)c3c(N)ncnn23)cc1C(=O)N[C@@H]1CN(C(=O)OCC2(C(F)(F)F)CC2)C[C@@H]1F` [Example 1510, [1-(trifluoromethyl)cyclopropyl]methyl (3R,4S)-3-(5-{4-amino-5-[(4,4-difluoropiperidin-1-yl)methyl]pyrrolo[2,1-f][1,2,4]triazin-7-yl}-2-methoxypyridine-3-amido)-4-fluoropyrrolidine-1-carboxylate] as the compound, how does the IC50 read?
**A.** 0.0016 µM

**Q.** How did the IC50 turn out when `COc1ncc(-c2cc(CN3CCC(F)(F)CC3)c3c(N)ncnn23)cc1C(=O)N[C@@H]1CN(C(=O)OC2(C(F)(F)F)CCC2)C[C@@H]1F` [Example 1511, 1-(trifluoromethyl)cyclobutyl (3R,4S)-3-(5-{4-amino-5-[(4,4-difluoropiperidin-1-yl)methyl]pyrrolo[2,1-f][1,2,4]triazin-7-yl}-2-methoxypyridine-3-amido)-4-fluoropyrrolidine-1-carboxylate] was run?
**A.** 0.006 µM

**Q.** `COc1ncc(-c2cc(CN3CCC(F)(F)CC3)c3c(N)ncnn23)cc1C(=O)N[C@@H]1CN(C(=O)OC(C)C2CC2)C[C@@H]1F` (stereo partly drawn) [Example 1513, 1-cyclopropylethyl (3R,4S)-3-(5-{4-amino-5-[(4,4-difluoropiperidin-1-yl)methyl]pyrrolo[2,1-f][1,2,4]triazin-7-yl}-2-methoxypyridine-3-amido)-4-fluoropyrrolidine-1-carboxylate] was tested. Which IC50 did it give?
**A.** 0.0029 µM

**Q.** With `COc1ncc(-c2cc(CN3CCC(F)(F)CC3)c3c(N)ncnn23)cc1C(=O)N[C@@H]1CN(C(=O)OCC(C)(C)C)C[C@@H]1F` [Example 1514, 2,2-dimethylpropyl (3R,4S)-3-(5-{4-amino-5-[(4,4-difluoropiperidin-1-yl)methyl]pyrrolo[2,1-f][1,2,4]triazin-7-yl}-2-methoxypyridine-3-amido)-4-fluoropyrrolidine-1-carboxylate] as the compound, how does the IC50 read?
**A.** 0.0048 µM

**Q.** Which IC50 does the source give for `COc1ncc(-c2cc(CN3CCC(F)(F)CC3)c3c(N)ncnn23)cc1C(=O)N[C@@H]1CN(C(=O)O[C@H](C)C2CC2)C[C@@H]1F` [Example 1515, (1R)-1-cyclopropylethyl (3R,4S)-3-(5-{4-amino-5-[(4,4-difluoropiperidin-1-yl)methyl]pyrrolo[2,1-f][1,2,4]triazin-7-yl}-2-methoxypyridine-3-amido)-4-fluoropyrrolidine-1-carboxylate] here?
**A.** 0.0015 µM

**Q.** For `COc1ncc(-c2cc(CN3CCC(F)(F)CC3)c3c(N)ncnn23)cc1C(=O)N[C@@H]1CN(C(=O)OCCCF)C[C@@H]1F` [Example 1516, 3-fluoropropyl (3R,4S)-3-(5-{4-amino-5-[(4,4-difluoropiperidin-1-yl)methyl]pyrrolo[2,1-f][1,2,4]triazin-7-yl}-2-methoxypyridine-3-amido)-4-fluoropyrrolidine-1-carboxylate], which IC50 is on record?
**A.** 0.00062 µM

**Q.** `COc1ncc(-c2cc(CN3CCC(F)(F)CC3)c3c(N)ncnn23)cc1C(=O)N[C@@H]1CN(C(=O)OCC2CC2)C[C@@H]1F` [Example 1517, cyclopropylmethyl (3R,4S)-3-(5-{4-amino-5-[(4,4-difluoropiperidin-1-yl)methyl]pyrrolo[2,1-f][1,2,4]triazin-7-yl}-2-methoxypyridine-3-amido)-4-fluoropyrrolidine-1-carboxylate] was tested. Which IC50 did it give?
**A.** 0.0011 µM

**Q.** Which IC50 does the source give for `COc1ncc(-c2cc(CN3CCC(F)(F)CC3)c3c(N)ncnn23)cc1C(=O)N[C@@H]1CN(C(=O)OCC(C)(F)F)C[C@@H]1F` [Example 1518, 2,2-difluoropropyl (3R,4S)-3-(5-{4-amino-5-[(4,4-difluoropiperidin-1-yl)methyl]pyrrolo[2,1-f][1,2,4]triazin-7-yl}-2-methoxypyridine-3-amido)-4-fluoropyrrolidine-1-carboxylate] here?
**A.** 0.0016 µM

**Q.** `COc1ncc(-c2cc(CN3CCC(F)(F)CC3)c3c(N)ncnn23)cc1C(=O)N[C@@H]1CN(C(=O)OC2(C)CC2)C[C@@H]1F` [Example 1519, 1-methylcyclopropyl (3R,4S)-3-(5-{4-amino-5-[(4,4-difluoropiperidin-1-yl)methyl]pyrrolo[2,1-f][1,2,4]triazin-7-yl}-2-methoxypyridine-3-amido)-4-fluoropyrrolidine-1-carboxylate] was tested. Which IC50 did it give?
**A.** 0.0037 µM

**Q.** How did the IC50 turn out when `COc1ncc(-c2cc(CN3CCC(F)(F)CC3)c3c(N)ncnn23)cc1C(=O)N[C@@H]1CN(C(=O)OCC(F)(F)C(F)F)C[C@@H]1F` [Example 1520, 2,2,3,3-tetrafluoropropyl (3R,4S)-3-(5-{4-amino-5-[(4,4-difluoropiperidin-1-yl)methyl]pyrrolo[2,1-f][1,2,4]triazin-7-yl}-2-methoxypyridine-3-amido)-4-fluoropyrrolidine-1-carboxylate] was run?
**A.** 0.0033 µM

— patent publication US11618753B2 (priority 2018, dated 2023)
